Data reported in article PMC10739154, “Reinvestigation of Disulfide-bonded Oligomeric Forms of the Unfolded Protein Response Transducer ATF6” (Cell Structure and Function, 2019).
Results are given in words; binding and its absence hold for the method and conditions named. For some of these results: Binding seen in cells or lysates may run through a third protein. Some binding calls cover weakened binding; strength is not graded here. Each block holds one molecule with its values, some of them ahead of it.

Key:
[1] = molecular target: EGFP-ATF6α(C467&618A) (human) (UniProt P18850); assay: co-IP; HA-ATF6α and EGFP-ATF6α co-expressed in HCT116 DKO cells; 1% NP-40 lysates, anti-HA or anti-GFP antibody with protein G sepharose at 4°C, non-denaturing (disulfide bond-retaining) conditions; eluted with dithiothreitol, reducing SDS-PAGE, blot with anti-ATF6α
EGFP-ATF6α(WT) (human) = EGFP-ATF6α(WT) (human) (UniProt P18850); assay: as above
[2] = molecular target: HA-ATF6α(C467&618A) (human) (UniProt P18850); assay: condition: only in non-reducing SDS-PAGE (boiled in SDS; shows disulfide-bonded forms alone); non-reducing SDS-PAGE with immunoblotting; co-expression of HA-ATF6α and EGFP-ATF6α forms in HCT116 DKO cells; lysates on non-reducing SDS-PAGE; blot with anti-ATF6α; band of disulfide-bonded heterodimer of intermediate size
HA-ATF6α(WT) (human) [3] = molecular target: HA-ATF6α(WT) (human) (UniProt P18850); assay: as above
[4] = molecular target: HA-ATF6α(C467&618A) (human) (UniProt P18850); assay: co-IP; HA-ATF6α and EGFP-ATF6α co-expressed in HCT116 DKO cells; 1% NP-40 lysates, anti-HA or anti-GFP antibody with protein G sepharose at 4°C, non-denaturing (disulfide bond-retaining) conditions; eluted with dithiothreitol, reducing SDS-PAGE, blot with anti-ATF6α
HA-ATF6α(WT) (human) [5] = molecular target: HA-ATF6α(WT) (human) (UniProt P18850); assay: as above
[6] = molecular target: HA-ATF6α(C81/321/380/618A), in HCT116 DKO cells (human) (UniProt P18850); assay: non-reducing SDS-PAGE with immunoblotting; one form of ATF6α in the cells; lysis in 1% NP-40 buffer (50 mM Tris/HCl pH 7.5, 150 mM NaCl, 10 mM N-ethylmaleimide), boiled in SDS sample buffer without dithiothreitol; blot with anti-ATF6α; shows disulfide-bonded forms
HA-ATF6α(C618A) (human) [7] = molecular target: HA-ATF6α(C618A) (human) (UniProt P18850); assay: as above
[8] = molecular target: HA-ATF6α(C81/321/380A) (human) (UniProt P18850); assay: as above
HA-ATF6α(WT) (human) [9] = molecular target: HA-ATF6α(WT) (human) (UniProt P18850); assay: non-reducing SDS-PAGE with immunoblotting; co-expression of HA-ATF6α and EGFP-ATF6α forms in HCT116 DKO cells; lysates on non-reducing SDS-PAGE; blot with anti-ATF6α; band of disulfide-bonded heterodimer of intermediate size
HA-ATF6α(C618A) (human) [10] = molecular target: HA-ATF6α(C618A) (human) (UniProt P18850); assay: as above
HA-ATF6α(C467A) (human) = HA-ATF6α(C467A) (human) (UniProt P18850); assay: as above

Molecule: HA-ATF6α(C618A) (from UniProt P18850 1-670)
binding (HA-ATF6α(C618A) (human) [7]): binds

B1: EGFP-ATF6α(WT) (natural protein, human, UniProt P18850 1-670, looked up)
chain: MGEPAGVAGTMESPFSPGLFHRLDEDWDSALFAELGYFTDTDELQLEAANETYENNFDNLDFDLDLMPWESDIWDINNQICTVKDIKAEPQPLSPASSSYSVSSPRSVDSYSSTQHVPEELDLSSSSQMSPLSLYGENSNSLSSAEPLKEDKPVTGPRNKTENGLTPKKKIQVNSKPSIQPKPLLLPAAPKTQTNSSVPAKTIIIQTVPTLMPLAKQQPIISLQPAPTKGQTVLLSQPTVVQLQAPGVLPSAQPVLAVAGGVTQLPNHVVNVVPAPSANSPVNGKLSVTKPVLQSTMRNVGSDIAVLRRQQRMIKNRESACQSRKKKKEYMLGLEARLKAALSENEQLKKENGTLKRQLDEVVSENQRLKVPSPKRRVVCVMIVLAFIILNYGPMSMLEQDSRRMNPSVSPANQRRHLLGFSAKEAQDTSDGIIQKNSYRYDHSVSNDKALMVLTEEPLLYIPPPPCQPLINTTESLRLNHELRGWVHRHEVERTKSRRMTNNQQKTRILQGALEQGSNSQLMAVQYTETTSSISRNSGSELQVYYASPRSYQDFFEAIRRRGDTFYVVSFRRDHLLLPATTHNKTTRPKMSIVLPAININENVINGQDYEVMMQIDCQVMDTRILHIKSSSVPPYLRDQQRNQTNTFFGSPPAATEATHVVSTIPESLQ
notes: ATF6α, human, tagged with EGFP at the N-terminus; Constructed in previous studies (Nadanaka et al., 2007; 2004); source: HCT116 ATF6α/β-DKO cells, transfected, in lysate; not shown: EGFP, N-terminal, kept
binding (HA-ATF6α(WT) (human) [9]): binds
binding (HA-ATF6α(C618A) (human) [10]): binds
binding (HA-ATF6α(C467A) (human)): binds
binding [2]: no binding
binding [4]: binds
binding (HA-ATF6α(WT) (human) [5]): binds

B2: HA-ATF6α(WT) (natural protein, human, UniProt P18850 1-670, looked up)
chain: MGEPAGVAGTMESPFSPGLFHRLDEDWDSALFAELGYFTDTDELQLEAANETYENNFDNLDFDLDLMPWESDIWDINNQICTVKDIKAEPQPLSPASSSYSVSSPRSVDSYSSTQHVPEELDLSSSSQMSPLSLYGENSNSLSSAEPLKEDKPVTGPRNKTENGLTPKKKIQVNSKPSIQPKPLLLPAAPKTQTNSSVPAKTIIIQTVPTLMPLAKQQPIISLQPAPTKGQTVLLSQPTVVQLQAPGVLPSAQPVLAVAGGVTQLPNHVVNVVPAPSANSPVNGKLSVTKPVLQSTMRNVGSDIAVLRRQQRMIKNRESACQSRKKKKEYMLGLEARLKAALSENEQLKKENGTLKRQLDEVVSENQRLKVPSPKRRVVCVMIVLAFIILNYGPMSMLEQDSRRMNPSVSPANQRRHLLGFSAKEAQDTSDGIIQKNSYRYDHSVSNDKALMVLTEEPLLYIPPPPCQPLINTTESLRLNHELRGWVHRHEVERTKSRRMTNNQQKTRILQGALEQGSNSQLMAVQYTETTSSISRNSGSELQVYYASPRSYQDFFEAIRRRGDTFYVVSFRRDHLLLPATTHNKTTRPKMSIVLPAININENVINGQDYEVMMQIDCQVMDTRILHIKSSSVPPYLRDQQRNQTNTFFGSPPAATEATHVVSTIPESLQ
notes: ATF6α, human, full length; Plasmid from R. Prywes (Wang et al., 2000); also called HA-tagged WT; HA-tagged ATF6α WT; source: HCT116 ATF6α/β-DKO cells, transfected, in lysate; not shown: HA, N-terminal, kept
binding [1]: binds
binding (EGFP-ATF6α(WT) (human)): binds

B3: EGFP-ATF6α(C467A) (natural protein, human, UniProt P18850 1-670, looked up)
chain: MGEPAGVAGTMESPFSPGLFHRLDEDWDSALFAELGYFTDTDELQLEAANETYENNFDNLDFDLDLMPWESDIWDINNQICTVKDIKAEPQPLSPASSSYSVSSPRSVDSYSSTQHVPEELDLSSSSQMSPLSLYGENSNSLSSAEPLKEDKPVTGPRNKTENGLTPKKKIQVNSKPSIQPKPLLLPAAPKTQTNSSVPAKTIIIQTVPTLMPLAKQQPIISLQPAPTKGQTVLLSQPTVVQLQAPGVLPSAQPVLAVAGGVTQLPNHVVNVVPAPSANSPVNGKLSVTKPVLQSTMRNVGSDIAVLRRQQRMIKNRESACQSRKKKKEYMLGLEARLKAALSENEQLKKENGTLKRQLDEVVSENQRLKVPSPKRRVVCVMIVLAFIILNYGPMSMLEQDSRRMNPSVSPANQRRHLLGFSAKEAQDTSDGIIQKNSYRYDHSVSNDKALMVLTEEPLLYIPPPPAQPLINTTESLRLNHELRGWVHRHEVERTKSRRMTNNQQKTRILQGALEQGSNSQLMAVQYTETTSSISRNSGSELQVYYASPRSYQDFFEAIRRRGDTFYVVSFRRDHLLLPATTHNKTTRPKMSIVLPAININENVINGQDYEVMMQIDCQVMDTRILHIKSSSVPPYLRDQQRNQTNTFFGSPPAATEATHVVSTIPESLQ
notes: ATF6α, human, C467A, tagged with EGFP at the N-terminus; Constructed in previous studies (Nadanaka et al., 2007; 2004); source: HCT116 ATF6α/β-DKO cells, transfected, in lysate; not shown: EGFP, N-terminal, kept
binding (HA-ATF6α(C467A) (human)): binds

Next, values leading:

binding [1]: binds
binding (EGFP-ATF6α(WT) (human)): binds
Molecule: HA-ATF6α(C467&618A) (from UniProt P18850 1-670)

binding [2]: no binding
binding (HA-ATF6α(WT) (human) [3]): no binding
binding [4]: binds
binding (HA-ATF6α(WT) (human) [5]): binds
Molecule: EGFP-ATF6α(C467&618A) (from UniProt P18850 1-670)

binding [6]: binds
Molecule: HA-ATF6α(C81/321/380/618A), in HCT116 DKO cells (from UniProt P18850 1-670)

binding [8]: binds
Molecule: HA-ATF6α(C81/321/380A) (from UniProt P18850 1-670)

binding (HA-ATF6α(C618A) (human) [10]): binds
B4: EGFP-ATF6α(C618A) (natural protein, human, UniProt P18850 1-670, looked up)
chain: MGEPAGVAGTMESPFSPGLFHRLDEDWDSALFAELGYFTDTDELQLEAANETYENNFDNLDFDLDLMPWESDIWDINNQICTVKDIKAEPQPLSPASSSYSVSSPRSVDSYSSTQHVPEELDLSSSSQMSPLSLYGENSNSLSSAEPLKEDKPVTGPRNKTENGLTPKKKIQVNSKPSIQPKPLLLPAAPKTQTNSSVPAKTIIIQTVPTLMPLAKQQPIISLQPAPTKGQTVLLSQPTVVQLQAPGVLPSAQPVLAVAGGVTQLPNHVVNVVPAPSANSPVNGKLSVTKPVLQSTMRNVGSDIAVLRRQQRMIKNRESACQSRKKKKEYMLGLEARLKAALSENEQLKKENGTLKRQLDEVVSENQRLKVPSPKRRVVCVMIVLAFIILNYGPMSMLEQDSRRMNPSVSPANQRRHLLGFSAKEAQDTSDGIIQKNSYRYDHSVSNDKALMVLTEEPLLYIPPPPCQPLINTTESLRLNHELRGWVHRHEVERTKSRRMTNNQQKTRILQGALEQGSNSQLMAVQYTETTSSISRNSGSELQVYYASPRSYQDFFEAIRRRGDTFYVVSFRRDHLLLPATTHNKTTRPKMSIVLPAININENVINGQDYEVMMQIDAQVMDTRILHIKSSSVPPYLRDQQRNQTNTFFGSPPAATEATHVVSTIPESLQ
notes: ATF6α, human, C618A, tagged with EGFP at the N-terminus; Constructed in previous studies (Nadanaka et al., 2007; 2004); source: HCT116 ATF6α/β-DKO cells, transfected, in lysate; not shown: EGFP, N-terminal, kept
